Experimental findings from PubChem BioAssay (NCI) are described below.

Among the test systems are LOX IMVI melanoma; NCI-H460 lung; NCI-H23 lung; OVCAR-8 ovarian; M14 melanoma; KM12 colon; HL-60(TB) leukemia; MDA-MB-231 breast; SF-295 CNS; COLO 205 colon; HCT-15 colon; MOLT-4 leukemia; HOP-62 NSCLC; SR leukemia; DU-145 prostate; UACC-62 melanoma; HS 578T breast; SK-OV-3 ovarian; HCT-116 colon; K-562 leukemia; NCI/ADR-RES ovarian; SNB-75 CNS; CCRF-CEM leukemia; SK-MEL-5 melanoma; HCC-2998 colon; RPMI-8226 leukemia; OVCAR-3 ovarian; IGROV1 ovarian; HOP-92 NSCLC; RXF 393 renal; U251 CNS; HT29 colon; CAKI-1 renal; OVCAR-5 ovarian; KM20L2 colon; OVCAR-4 ovarian.

Common to all, as to assay: DTP human tumour cell line panel, 48 h

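Values below derive from 48-hour exposures of cells grown in 96-well plates, with endpoints linearly interpolated between the two concentrations bracketing the appropriate inhibition level. Definition used: TGI = concentration required for complete inhibition of growth.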 Not every entry of the source has a single result; some have several. This is not the full list of results. The source may hold further records. Records of one sample usually come from different ranges of test concentrations, not given here; some values may only mark the edge of a range.

Take `C=C1CC2CC[C@@]34CC5O[C@@H]6C(O[C@H]7CC[C@H](CC(=O)OC8C(C)C9OC%10C[C@]%11(C[C@@H]%12O[C@]%13(CC(C)[C@@H]%14O[C@H](C(O)CC(O)CO)C[C@@H]%14O%13)CC(C)[C@@H]%12O%11)OC%10CC9O[C@H]8C[C@H]8OC(CC[C@@H]1O2)C[C@@H](C)C8=C)OC7[C@@H]6O3)[C@H]5O4` (stereo not given in full): the TGI in the experiment with LOX IMVI melanoma was 12.5 nM, 629 nM, 1.49 µM [1 test] and 570 nM [mean of 4 tests]; in the experiment on NCI-H460 lung, 4.18 nM, 1.2 µM [1 test] and 192 nM [mean of 4 tests]; with NCI-H23 lung, 3.25 nM, 46.4 nM, 2.84 µM; in the experiment with OVCAR-8 ovarian it was 11 nM, 43.3 nM, 2.09 µM [1 test] and 43.1 nM [mean of 4 tests]; in the experiment with M14 melanoma it was 9.98 nM and 1.96 µM; in the experiment with KM12 colon, 6.33, 11.9, 26.8, 631 nM. In addition, the TGI was 0.842 nM and 2.55 µM in the experiment on HL-60(TB) leukemia; 13.5 nM and 159 nM in the experiment with MDA-MB-231 breast; 3.16 nM, 2 nM, 35.4 nM, 1.79 µM in the experiment with SF-295 CNS; 5.14 nM, 2.21 nM, 0.215 nM, 1.26 µM with COLO 205 colon; 56.4 nM, 2.55 µM, 12.5 µM in the experiment with HCT-15 colon; 70.1 nM and 1.29 µM in the experiment with MOLT-4 leukemia. Further, the TGI was 9.66 nM and 2.55 µM in the experiment with HOP-62 NSCLC; 9.19 nM and 3.57 µM in the experiment on SR leukemia; 4.75 nM, 126 nM, 15.3 µM in the experiment on DU-145 prostate; 0.668 nM, 2.55 µM, 1.87 µM with UACC-62 melanoma; 2.85 µM [1 test] and 46.4 nM [mean of 3 tests] in the experiment on HS 578T breast; 7.56 nM, 19.3 nM, 579 nM, 987 nM, 2.14 µM in the experiment on SK-OV-3 ovarian. In addition, the TGI in the experiment on HCT-116 colon was 12 nM, 3.09 nM, 1.44 µM [1 test] and 735 nM [mean of 4 tests]; in the experiment with K-562 leukemia, 9.69 nM, 2.55 µM, 8.62 µM; in the experiment with NCI/ADR-RES ovarian it was 28 nM, 94.3 nM, 8.08 nM, > 100 µM; in the experiment on SNB-75 CNS it was 3.85 nM and 1.43 µM; in the experiment on CCRF-CEM leukemia, 9.24 nM, 2.55 µM, 1.6 µM; in the experiment with SK-MEL-5 melanoma, 5.07 nM, 0.619 nM, 27.4 nM. Besides, the TGI was 8.12 nM, 3.65 nM, 11.7 nM, 6.5 µM in the experiment with HCC-2998 colon; 13.8 nM, 2.55 µM, 1.88 µM in the experiment with RPMI-8226 leukemia; 1.74 nM, 0.597 nM, 84.6 nM, 3.59 µM in the experiment on OVCAR-3 ovarian; 21.4 nM, 2.55 µM, 1.12 µM in the experiment on IGROV1 ovarian; 4.67 nM and 2.55 µM in the experiment on HOP-92 NSCLC; 5.54 nM and 1.91 µM in the experiment on RXF 393 renal. Moreover, the TGI was 27.1 nM, 1.05 µM [1 test] and 581 nM [mean of 4 tests] in the experiment on U251 CNS; 6.78 nM, 2.44 nM, 36.8 nM, 1.56 µM with HT29 colon.

Regarding `CC(C)(O)/C=C/C(=O)[C@](C)(O)[C@H]1[C@H](O)C[C@@]2(C)[C@@H]3CC=C4[C@@H](C[C@H](O)C(=O)C4(C)C)[C@]3(C)C(=O)C[C@]12C`, the TGI in the experiment on COLO 205 colon is 436 nM and 27.4 µM; in the experiment with HCT-15 colon, 966 nM [mean of 3 tests] and 27.7 µM [mean of 4 tests]; in the experiment with CAKI-1 renal it was 316 nM and 5.01 µM; in the experiment on OVCAR-5 ovarian, 953 nM and 22.5 µM; in the experiment with HCT-116 colon, 706 nM and 8.81 µM; in the experiment with KM20L2 colon, 435 nM and 20.8 µM. Moreover, the TGI is 176 nM and 1.84 µM with SNB-75 CNS; 661 nM [mean of 3 tests] and 11.5 µM [mean of 4 tests] in the experiment with OVCAR-4 ovarian.
